Results as given in the supplement of paper PMC11417369.
± gives the standard deviation of the averaged measurements. Some of the results follow.

What follows are sequences tested on PfAP2-G AP2 domain (GST-tagged) (assay: gcPBM binding intensity (ln(normalized median fluorescence intensity)); higher = stronger DNA binding).
How it was run: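 Probes on an Agilent 4 × 180k array were primer-extended, double-stranded and 36 bp long, taken from intergenic genomic regions, with negative controls added. GST-tagged P. falciparum DNA-binding domains from E. coli, about 25 μg on average, were applied to the array for 1 h in 1× PBS containing 1% milk, 0.2 mg/ml BSA, 0.5% salmon testes DNA and 0.03% Triton X-100. Binding intensity, obtained after Alexa488 anti-GST antibody detection and a 488 nm scan, is the highest Masliner-normalised natural-log median intensity across replicate spots of either probe orientation.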

Sequence | gcPBM binding intensity (ln)
TATATTAAACAATATACACACATTAATGTATACATA [CACACA_site2755] | 10.02 ± 0.028
GGAATGGTACATGATACACACACGCACATATATATA [CACACA_site5825] | 10.8 ± 0.57
GATTTAATAGATACGAGTACAGAAATTGTATACATA [XGTACX_site7563] | 11.6 ± 0.7
ATATATATATATATATATATATATATATATAAGTGG [XGTACX_negctrl_site90] | 10.3 ± 0.56
TATTAATTCATTTTTTTTTTTTTTTTTTTTTTTTTT [CACACA_negctrl_site1215] | 11 ± 0.69
TATTTTTTTTTTCACTGTACATACAACAACAAATAT [XGTACX_site8835] | 11.3 ± 0.83
CCCTTAATTTAAAACACACAAACAAATAAGTTAGTT [CACACA_site3793] | 9.91 ± 0.085
AATATATTTATTATAACACACACATATATATATTAT [CACACA_site8264] | 9.9 ± 0.11
TACATATTTTTCTTTTCACACATGGAAAAAAAAGGT [CACACA_site5146] | 10.1 ± 0.23
TTATATGTTTTGTGTACACAATTTATTAAATTAATA [CACACA_site5645] | 11.7 ± 0.88
ATAGGAAAAAGTATTGGTACACATACATATACGTTA [XGTACX_site5819] | 11.2 ± 0.72
ATAAAATACCCTGATCTATTACATATTATATTCTGC [GTGCAC_negctrl_site311] | 9.89 ± 0.014
TATATATTTTTTTCATGTACATATAAATTAATTAAA [XGTACX_site8680] | 11.4 ± 0.73
ACACAAAAAATTAAGTGTACTCATCAAGAAAAAAAA [XGTACX_site3456] | 11.5 ± 0.82
TAATTACACTTTAAAAGTACATATATAATAACATTA [XGTACX_site379] | 11.4 ± 1.1
CAAACAATTAAACAAACACACATATACATGTATATA [CACACA_site2060] | 9.79 ± 0.13
AAAATAAGCCATATACGTACATACATATATAAATAT [XGTACX_site4197] | 11.4 ± 0.95
TTTTTTATGTTCAATTGTACATATACATATATATAT [XGTACX_site6013] | 11.2 ± 0.48
TTCATATTTCATATATGTACTTATGTTCAATATAGT [XGTACX_site3811] | 11.1 ± 0.79
CACATAAAAAAATAAACACACATATGTATATAAATA [CACACA_site7483] | 10.23 ± 0.057
CTTTAAATGATGTAAACACACACATATACATTATTA [CACACA_site9035] | 9.99 ± 0.099
AATATGAAACAAGACGCACACATAAATAAATAAATA [CACACA_site326] | 10.3 ± 0.38

Sequence | gcPBM binding intensity (ln)
AGTGCTACTCATGATTGAATAGAGGAAAAGGCGGTG [GTGCAC_negctrl_site49] | 9.88 ± 0.17
TAAAAAAAAATAAAAAGTACATATATATATATATAT [XGTACX_site1155] | 11.1 ± 0.86
AATGGAAAAATAGGCACACACACATAAATACAGATA [CACACA_site4844] | 10.3 ± 0.18
TTTTTTTTTTTTTTTGCACACTATATTTAATATAAG [CACACA_site2444] | 9.88 ± 0.52
CTTTTTTGGTACATCACACATTTTTACATTCCCTTT [CACACA_site4957] | 11.2 ± 0.7
TTGAAAAATCAGCACACACACAAATACATACATATT [CACACA_site7505] | 10.13 ± 0.014
ACATATGGCACATATGTACACACGTATAGATAATAT [CACACA_site2024] | 11.5 ± 0.54
CTAAAAAAATAATAAAGTACACAAACGAATATATAA [XGTACX_site668] | 11.5 ± 0.83
CCATATTTAATAAAATGTACTCATTCTTTTATTTTA [XGTACX_site7802] | 11.3 ± 0.7
TTAATAGTGGAAATATGTACATAATTTTGGTCTTTT [XGTACX_site1664] | 11.3 ± 0.52
CTGTTCAAAATATGAACACACACATATATATATATA [CACACA_site8638] | 10.1 ± 0.38
TATATTTCTTATTACATACACACATATACATATATG [CACACA_site3202] | 10.26 ± 0.042
TAATAATATAATAATACACACTCATTATATATATAA [CACACA_site6045] | 9.73 ± 0.014
GATTCCTTTAACCCTGCACACATACATACATTTATA [CACACA_site9308] | 10.3 ± 0.18
TTTATTTTAATTTATTGTACATTGTTATCAAGTGCA [XGTACX_site1110] | 10.8 ± 0.5
TATTGGTAATGTAAATGTACATATAGATATTTACAT [XGTACX_site1922] | 11 ± 0.64
ATAATAGTTAAATGTACACACTAACTACATGGAATA [CACACA_site5753] | 11.3 ± 0.86
TTGAAGTTAATAAAAACTTTATACATGAAATTATTT [CACACA_negctrl_site684] | 9.73
AAAAAAAGAAATTAGGTGCATAGCATTAACCGATAA [GTGCAC_site9582] | 9.91 ± 0.042
ATAGATGCATATTATACACACATATGTAAATACATT [CACACA_site4691] | 9.97 ± 0.014
CCACTATATAAAATCACACATTTATATTATACATAT [CACACA_site4570] | 9.89 ± 0.014
TATATATATATATATATTAATAATTAATATAAAAGA [XGTACX_negctrl_site32] | 10 ± 0.21
